Results on 30 compounds are retold here after PubChem BioAssay AID1745853 (National Center for Advancing Translational Sciences (NCATS), 2022).

Structures are written as SMILES. The list shows a part of the results. The main result of the screen is listed elsewhere. These columns were measured beside it and carry no call.

Test in all cases: Primary Screen for Target Class Profiling of Small Molecule Inhibitors of Methyltransferases
Experiment [1] has as its target Glycine N-methyltransferase (Homo sapiens) (UniProt Q14749). The note with it: purified enzyme, MTase-Glo SAH luminescence; measured here: GNMT inhibition; at 40 µM; stronger effect = lower value. In a few lines: (§1)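 Each enzyme was assayed with SAM and its substrate. SAH formation detected by MTase-Glo luminescence; single-point 40 uM screen[…].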
Experiment [2] has as its target Guanidinoacetate N-methyltransferase (Homo sapiens) (UniProt Q14353). As to conditions: purified enzyme, MTase-Glo SAH luminescence; measured here: GAMT inhibition; at 40 µM; stronger effect = lower value. The gist of the method:
as §1

Experiment [3] has as its target Histamine N-methyltransferase (Homo sapiens) (UniProt P50135). As to conditions: purified enzyme, MTase-Glo SAH luminescence; measured here: HNMT inhibition; at 40 µM; stronger effect = lower value. In a few lines: as §1
Experiment [4] concerns the target Nicotinamide N-methyltransferase (Homo sapiens) (UniProt P40261). As to conditions: purified enzyme, MTase-Glo SAH luminescence; measured here: NNMT inhibition; at 40 µM; stronger effect = lower value. The gist of the method:
as §1

Experiment [5] concerns the target Phenylethanolamine N-methyltransferase (Homo sapiens) (UniProt P11086). The note with it: purified enzyme, MTase-Glo SAH luminescence; measured here: PNMT inhibition; at 40 µM; stronger effect = lower value. The gist of the method:
as §1
% is set by controls: 0 for no effect and ±100 for the full control effect.

Take `COc1cc(/C=C/C(=O)OC2CC(OC(C)=O)C(OC(C)=O)C3C2CCC2C(=O)OC(c4ccoc4)CC23C)ccc1O[C@@H]1O[C@H](CO)[C@@H](O)[C@H](O)[C@H]1O` (some centres not stated): the activity change, negative = inhibition in experiment [1] is -2.4%; in experiment [2], -11.4%; in experiment [3] it was 0.767%; in experiment [4] it was -18.9%; in experiment [5] it was 0.434%.

Take `COc1ccccc1CC(=O)N1CC[C@@H]2NC(=O)[C@H]3C[C@H](NC(=O)C4CCC4)CN3C(=O)[C@H]21`: the activity change, negative = inhibition is -4.92% in experiment [1]; -10.8% in experiment [2]; -3.34% in experiment [3]; -14.3% in experiment [4]; -25.3% in experiment [5].

With `COCCC1(N(C)C)CCN(S(=O)(=O)c2cc(OC)ccc2OC)CC1`, the activity change, negative = inhibition was -4.75% in experiment [1]; 5.08% in experiment [2]; -3.35% in experiment [3]; -4.57% in experiment [4]; 0.095% in experiment [5].

For `CCN(CC)C(=O)c1csc(-c2cccc(OC(C)C)c2)n1`, the activity change, negative = inhibition in experiment [1] is -6.9%; in experiment [2], 0.096%; in experiment [3], -0.653%; in experiment [4] it was -3.24%; in experiment [5] it was 3.38%.

Regarding `CN1CCN(c2ncnc3sc4c(c23)CCNC4)CC1`, the activity change, negative = inhibition is -17.7% in experiment [1]; -6.62% in experiment [2]; -37.9% in experiment [3]; -79.5% in experiment [4]; -88.7% in experiment [5].

As for `COC(=O)[C@H]1CCCN1C(=O)[C@@H]1C[C@H](NC(=O)NC(C)C)CN1C(=O)c1cccn1C`, the activity change, negative = inhibition was -3.32% in experiment [1]; -0.141% in experiment [2]; -1.82% in experiment [3]; -8.07% in experiment [4]; -2.26% in experiment [5].

For `COc1cccc(CNC(=O)CCn2ccc3cc(S(=O)(=O)N4CCCCC4)ccc32)c1`, the activity change, negative = inhibition was found to be 3.36% in experiment [1]; 1.09% in experiment [2]; 7.41% in experiment [3]; 1.55% in experiment [4]; 4% in experiment [5].

For the compound `Cc1ccccc1CN1C(=O)c2cc3sccc3n2CC1(C)C(=O)NC1CCCC1` (configuration not stated), the activity change, negative = inhibition in experiment [1] is -11%; in experiment [2], 2.37%; in experiment [3] it was -12%; in experiment [4], -14.2%; in experiment [5] it was -9.06%.

As to `Cc1cc(C)cc(N2C(=O)CSc3c(c4ccccc4n3C)C2C(=O)NCCC(C)C)c1` (configuration not stated), the activity change, negative = inhibition is -0.431% in experiment [1]; 0.176% in experiment [2]; -1.85% in experiment [3]; -6.16% in experiment [4]; -3.41% in experiment [5].

Turning to `Cc1c(CO)cccc1NC(=O)c1ccc(CN2CCCC(C)C2)cc1` (configuration not stated), the activity change, negative = inhibition is -2.38% in experiment [1]; 1.32% in experiment [2]; -12.7% in experiment [3]; -0.197% in experiment [4]; 8.28% in experiment [5].

Regarding `CCc1ccccc1NC(=O)Cn1nc2cc(C)nc(Nc3ccc(F)cc3)n2c1=O`, the activity change, negative = inhibition in experiment [1] is 11.2%; in experiment [2], 0%; in experiment [3], 7.03%; in experiment [4] it was 0.831%; in experiment [5], 3.85%.

Take `CCCn1c(C)cnc1CC1CCN(S(=O)(=O)c2ccccc2)C1` (configuration not stated): the activity change, negative = inhibition in experiment [1] was -3.05%; in experiment [2] it was -4.43%; in experiment [3] it was -28.7%; in experiment [4], -29.8%; in experiment [5] it was -21.4%.

For `Fc1cc(F)c2c(c1)[C@@H]1C=CC[C@@H]1[C@H](c1ccncc1)N2`, the activity change, negative = inhibition is -7.98% in experiment [1]; 3.88% in experiment [2]; 0.274% in experiment [3]; -7.11% in experiment [4]; -2.52% in experiment [5].

With `CC(C)Cn1c(=O)c2ccc(C(=O)NC(C)C)cc2n2c(SCC(=O)c3ccc(F)cc3)nnc12`, the activity change, negative = inhibition in experiment [1] is 4.79%; in experiment [2] it was 0.84%; in experiment [3] it was 1.79%; in experiment [4], 2.82%; in experiment [5], 3.47%.

`O=C(C1CC1)N1CCC(Cc2nc(-c3ccc(F)cc3)no2)CC1`: the activity change, negative = inhibition is -3.93% in experiment [1]; 1.01% in experiment [2]; 1.19% in experiment [3]; -11.8% in experiment [4]; 5.02% in experiment [5].

With `CCc1nc2cc(N3CCC(C(=O)NCc4cccnc4)CC3)cnc2nc1CC`, the activity change, negative = inhibition in experiment [1] is -9.23%; in experiment [2] it was -2.64%; in experiment [3] it was -4.4%; in experiment [4], -6.39%; in experiment [5], -6.14%.

`COc1ccc2cc3n(c2c1)CC(C)(C(=O)NC1CCCC1)N(Cc1ccccc1OC)C3=O` (configuration not stated): the activity change, negative = inhibition was -3.48% in experiment [1]; -0.584% in experiment [2]; 1.39% in experiment [3]; -3.32% in experiment [4]; -2.27% in experiment [5].

Regarding `CCN1CCN(Cc2ccc(-c3cc4c(NC(C)c5ccccc5)ncnc4[nH]3)cc2)CC1` (configuration not stated), the activity change, negative = inhibition in experiment [1] was -32.9%; in experiment [3] it was -52.7%.

On to `Cc1cc(C)cc(NC(=O)Cn2nc3n(C)c(=O)c4ccc(C(=O)NC5CCCC5)cc4n3c2=O)c1`, for which the activity change, negative = inhibition in experiment [1] is 2.97%; in experiment [2], -2.01%; in experiment [3], -2.04%; in experiment [4] it was -3.42%; in experiment [5], -6.7%.

For the compound `CC(C)Oc1ccc(CNC(=O)CNC(=O)C2(C)Cn3c(cc4ccccc43)C(=O)N2C)cc1` (configuration not stated), the activity change, negative = inhibition is 2.98% in experiment [1]; 0.005% in experiment [2]; 3.24% in experiment [3]; 12.4% in experiment [4]; 0.744% in experiment [5].

Regarding `Cc1nc(C)c(C(=O)N2CCC3(CC2)CC(N(Cc2ccccc2)C2CC2)CCO3)s1` (configuration not stated), the activity change, negative = inhibition in experiment [1] is -5.2%; in experiment [2], 0.144%; in experiment [3], 0.314%; in experiment [4], -3.7%; in experiment [5] it was 1.48%.

Consider `CC1(C(=O)NC2CCCCCCC2)Cn2c(ccc2-c2ccco2)C(=O)N1Cc1cccc(F)c1` (configuration not stated), for which the activity change, negative = inhibition is -0.549% in experiment [1]; 0% in experiment [2]; 2.68% in experiment [3]; -3.89% in experiment [4]; 0.305% in experiment [5].

Turning to `Cc1ccc(Cl)cc1NC(=O)Cn1nc2n(CCCOC(C)C)c(=O)c3ccccc3n2c1=O`, the activity change, negative = inhibition in experiment [1] was 6.34%; in experiment [2], 0.678%; in experiment [3], 9.09%; in experiment [4], -1.42%; in experiment [5], 6.45%.

For the compound `CCC(C)NC(=O)c1ccc2c(=O)n(C)c3nnc(SCC(=O)Nc4ccc(C)c(F)c4)n3c2c1` (configuration not stated), the activity change, negative = inhibition in experiment [1] was 3.28%; in experiment [2], 0%; in experiment [3] it was 4.29%; in experiment [4] it was -2.55%; in experiment [5] it was 1.89%.

For the compound `CC1CCCC(C)N1CCCN1C(=O)c2cc3occc3n2CC1(C)C(=O)NC1CCCCCCC1` (configuration not stated), the activity change, negative = inhibition in experiment [1] was -1.32%; in experiment [2], 3.52%; in experiment [3], -5.76%; in experiment [4], -2.92%; in experiment [5] it was -3.48%.

For `CCC(C)NC(=O)c1ccc2c(=O)n(C)c3nn(CC(=O)Nc4ccc(F)cc4)c(=O)n3c2c1` (configuration not stated), the activity change, negative = inhibition in experiment [1] was 5.3%; in experiment [2], 1.23%; in experiment [3] it was 6.62%; in experiment [4], -1.46%; in experiment [5] it was 6.65%.

For the compound `CCOc1ccccc1NS(=O)(=O)c1cc2[nH]c(=O)[nH]c2cc1Cl`, the activity change, negative = inhibition is -11.9% in experiment [1]; 0% in experiment [2]; -12.7% in experiment [3]; -16.8% in experiment [4]; -22.8% in experiment [5].

Take `CCc1ccccc1S(=O)(=O)NCCn1c(CCc2ccccc2)nc2ccccc21`: the activity change, negative = inhibition is -3.85% in experiment [1]; 4.44% in experiment [2]; -3.52% in experiment [3]; -6.43% in experiment [4]; -1.72% in experiment [5].

Consider `O=C(NCCc1ccccn1)C1CCCN(c2nc(-c3ccccc3)nc3c2CCC3)C1` (configuration not stated), for which the activity change, negative = inhibition in experiment [1] was -12.6%; in experiment [2], -9.62%; in experiment [3], -7.76%; in experiment [4], -28.1%; in experiment [5], -10.7%.

`CC(C)NC(=O)NC[C@H]1OC[C@@H](NC2CCCC2)[C@@H]1O`: the activity change, negative = inhibition was -0.07% in experiment [1]; -0.604% in experiment [2]; 2.35% in experiment [3]; 0.212% in experiment [4]; -2.15% in experiment [5].
